Test results taken from PubChem BioAssay AID651820 (National Center for Advancing Translational Sciences (NCATS), 2012).
In all, about 340,000 compounds went through this assay and about 12,000 (3.5%) were called active. The inconclusive results got no clear call from the source; some entries with a clear call stand among them for comparison. The call rests on the fitted dose curve; in most records, active means well fitted inhibition curve with a large enough effect; inconclusive means small, poorly fitted or top-dose-only effect, or another doubt; inactive means no such curve, though single readings can be large or run the other way. No potency is given beside an inconclusive call; the fits are too rough.
On the % scale 0 is the no-effect control and ±100 the full control effect; potency means the concentration at half of the fitted maximal effect; tags describe the fitted curve by direction and shape.

Experiment: qHTS Assay for Inhibitors of Hepatitis C Virus (HCV)
Settings: Huh7.5.1 HCVcc-Cre (HCVcc is cell-culture hepatitis C virus) infection, luciferase reporter, 44 h; activity change, negative = inhibition: at 41.8 µM (top of the series)
In short: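 Whole-lifecycle infectious HCVcc-Cre system; cells 1,000/well, compound then virus (~0.5 moi) added 4 h after plating, 44 h culture. Luciferase read 15 sec following 15 min substrate incubation, room temp.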
In the case of CCc1ccc(-c2cc(C)no2)cc1S(=O)(=O)N1CCN(c2cc(C)ccc2C)CC1, the Potency is reported as inconclusive [inhibitor, partial curve].
In the case of CCc1c(C(C)=O)oc2ccc3c(C)cc(=O)oc3c12, the Potency is reported as inconclusive [inhibitor, partial curve].
In the case of c1ccc(CN2CCN(c3nc(NCc4ccco4)c4ccccc4n3)CC2)cc1, the Potency is reported as inconclusive [inhibitor, partial curve].
With COc1cc(C(=O)Nc2ccc(Cl)c(C(F)(F)F)c2)cc(OC)c1OC the Potency was active: 14.1 µM.
For Cc1nc(SCC(=O)N(C)C2(C#N)CCCCC2)c2ccccc2n1, the Potency was inconclusive [inhibitor, single point].
For Fc1ccccc1NC(=S)Nc1ccc(Br)cc1, the “activity change, negative = inhibition” value was inactive: -15.1%.
With COC(=O)C1=C(O)/C(=C\c2sccc2C)N=C1C the “activity change, negative = inhibition” value was inactive: 7.21%.
For COc1cc2c(cc1OC)C1(Nc3c-2c(Cc2ccccc2)nn3-c2ccccc2)C(=O)Nc2ccccc21 (stereo not given), the Potency was inconclusive [inhibitor, single point].
In the case of Cc1cccc(Cl)c1NC(=S)NCCc1ccccn1, the “activity change, negative = inhibition” value is reported as inactive: 3.49%.
For CCOC(=O)C1(CCOc2ccccc2)CCN(Cc2cnc(C)[nH]2)CC1, the Potency was inconclusive [inhibitor, partial curve, poor fit].
For CC[C@]12c3[nH]c4cc(-c5ccco5)ccc4c3CCN1C(=O)[C@@H](CC(=O)NCCCN(C)C)C[C@@H]2C(=O)N1CCN(C(=O)C2CC2)CC1, the Potency was inconclusive [inhibitor, single point].
In the case of O=C(Nc1nc(-c2ccccc2)cs1)c1ccc(N2CCOCC2)c([N+](=O)[O-])c1, the Potency is reported as active: 3.55 µM.
For CC(Oc1ccc(C#N)cc1)C(=O)Nc1ccc(-n2cnnn2)cc1 (stereo not given), the “activity change, negative = inhibition” value was inactive: 7.59%.
For Cc1ccccc1OCCOCCN1CCCCCC1, the “activity change, negative = inhibition” value was inactive: -13.2%.
In the case of O=C1c2ccccc2/C(=C\c2ccc3[nH]ccc3c2)N1c1ccccc1, the Potency is reported as inconclusive [inhibitor, single point].
With Cc1cc(C)n(-c2nc(SCCN3CCOCC3)c3c4c(sc3n2)CCCC4)n1 the “activity change, negative = inhibition” value was inactive: 11.8%.
In the case of COc1ccccc1-c1cc(C(=O)N/N=C/c2sccc2C)c2ccccc2n1, the Potency is reported as inconclusive [inhibitor, partial curve].
With CC(Sc1nc(-c2ccccc2)cs1)C(=O)Nc1ccc(Cl)cn1 (stereo not given) the Potency was inconclusive [inhibitor, single point].
For CCC(C)Nc1ccc(NC(C)CC)cc1 (stereo not given), the Potency was active: 22.4 µM.
In the case of O=C1CC(c2ccc(S(=O)(=O)NCc3ccncc3)cc2)CN1 (stereo not given), the Potency is reported as inconclusive [inhibitor, single point].
